# Assay results published in the supplement of paper PMC8728848.
# The other results are listed elsewhere or left out.
# B1: Glycodelin A (Homo sapiens), P09466 (protein)
# chain: MLCLLLTLGVALVCGVPAMDIPQTKQDLELPKLAGTWHSMAMATNNISLMATLKAPLRVHITSLLPTPEDNLEIVLHRWENNSCVEKKVLGEKTENPKKFKINYTVANEATLLDTDYDNFLFLCLQDTTTPIQSMMCQYLARVLVEDDEIMQGFIRAFRPLPRHLWYLLDLKQMEEPCRF
# Tests used:
# Test in all cases: glycan array binding signal (z-score within array); higher = stronger binding
# Conditions in all cases: glycan notation: IUPAC condensed, linker removed
# GalNAc(b1-3)GalNAc = molecular target: GalNAc(b1-3)GalNAc
# Procedure, shortened: (§1)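 Arrays were curated from the Consortium for Functional Glycomics database, 3228 in total, and kept only where the protein sequence was available. Binding is expressed as a within-array Z-score. This score was averaged across arrays of the same protein sequence at different concentrations or buffers and across linkers, and negative values can be read as non-binding.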
# GalNAc(b1-4)GlcNAc = molecular target: GalNAc(b1-4)GlcNAc
# Procedure, shortened: as §1
# Glc(a1-4)Glc = molecular target: Glc(a1-4)Glc
# Procedure, shortened: as §1
# Glc(a1-6)Glc(a1-6)Glc = molecular target: Glc(a1-6)Glc(a1-6)Glc
# Procedure, shortened: as §1
# Glc(b1-4)Glc = molecular target: Glc(b1-4)Glc
# Procedure, shortened: as §1
# Glc(b1-6)Glc = molecular target: Glc(b1-6)Glc
# Procedure, shortened: as §1
# GlcA(b1-3)Gal = molecular target: GlcA(b1-3)Gal
# Procedure, shortened: as §1
# GlcA(b1-3)GlcNAc = molecular target: GlcA(b1-3)GlcNAc
# Procedure, shortened: as §1
# GlcA(b1-6)Gal = molecular target: GlcA(b1-6)Gal
# Procedure, shortened: as §1
# [1] = molecular target: GlcNAc(a1-3)Gal(b1-4)GlcNAc
# Procedure, shortened: as §1
# [2] = molecular target: GlcNAc(a1-6)Gal(b1-4)GlcNAc
# Procedure, shortened: as §1
# [3] = molecular target: GlcNAc(b1-2)Gal(b1-3)GalNAc
# Procedure, shortened: as §1
# [4] = molecular target: GlcNAc(b1-2)Man(a1-3)[GlcNAc(b1-2)Man(a1-6)]Man(b1-4)GlcNAc(b1-4)GlcNAc
# Procedure, shortened: as §1
# GlcNAc(b1-3)Gal = molecular target: GlcNAc(b1-3)Gal
# Procedure, shortened: as §1
# [5] = molecular target: GlcNAc(b1-3)Gal(b1-3)GalNAc
# Procedure, shortened: as §1
# GlcNAc(b1-3)Gal(b1-4)Glc = molecular target: GlcNAc(b1-3)Gal(b1-4)Glc
# Procedure, shortened: as §1
# [6] = molecular target: GlcNAc(b1-3)Gal(b1-4)GlcNAc
# Procedure, shortened: as §1
# [7] = molecular target: GlcNAc(b1-3)Gal(b1-4)GlcNAc(b1-3)Gal(b1-4)GlcNAc
# Procedure, shortened: as §1
# GlcNAc(b1-3)GalNAc = molecular target: GlcNAc(b1-3)GalNAc
# Procedure, shortened: as §1
# GlcNAc(b1-3)Man = molecular target: GlcNAc(b1-3)Man
# Procedure, shortened: as §1
# [8] = molecular target: GlcNAc(b1-3)[GlcNAc(b1-4)][GlcNAc(b1-6)]GlcNAc
# Procedure, shortened: as §1
# [9] = molecular target: GlcNAc(b1-3)[GlcNAc(b1-6)]Gal(b1-4)GlcNAc
# Procedure, shortened: as §1
# [10] = molecular target: GlcNAc(b1-3)[GlcNAc(b1-6)]GalNAc
# Procedure, shortened: as §1
# [11] = molecular target: GlcNAc(b1-4)Gal(b1-4)GlcNAc
# Procedure, shortened: as §1
# GlcNAc(b1-4)GlcNAc = molecular target: GlcNAc(b1-4)GlcNAc
# Procedure, shortened: as §1
# [12] = molecular target: GlcNAc(b1-4)GlcNAc(b1-4)GlcNAc
# Procedure, shortened: as §1
# [13] = molecular target: GlcNAc(b1-4)GlcNAc(b1-4)GlcNAc(b1-4)GlcNAc(b1-4)GlcNAc
# Procedure, shortened: as §1
# [14] = molecular target: GlcNAc(b1-4)GlcNAc(b1-4)GlcNAc(b1-4)GlcNAc(b1-4)GlcNAc(b1-4)GlcNAc
# Procedure, shortened: as §1
# [15] = molecular target: GlcNAc(b1-4)[GlcNAc(b1-6)]GalNAc
# Procedure, shortened: as §1
# [16] = molecular target: GlcNAc(b1-6)Gal(b1-4)GlcNAc
# Procedure, shortened: as §1
# GlcNAc(b1-6)GalNAc = molecular target: GlcNAc(b1-6)GalNAc
# Procedure, shortened: as §1
# GlcNAc3Prop(b1-4)GlcNAc = molecular target: GlcNAc3Prop(b1-4)GlcNAc
# Procedure, shortened: as §1
# Kdn(a2-3)Gal(b1-3)GlcNAc = molecular target: Kdn(a2-3)Gal(b1-3)GlcNAc
# Procedure, shortened: as §1
# Kdn(a2-3)Gal(b1-4)GlcNAc = molecular target: Kdn(a2-3)Gal(b1-4)GlcNAc
# Procedure, shortened: as §1
# [17] = molecular target: Man(a1-2)Man(a1-2)Man(a1-3)Man
# Procedure, shortened: as §1
# [18] = molecular target: Man(a1-2)Man(a1-2)Man(a1-6)[Man(a1-3)]Man
# Procedure, shortened: as §1
# Man(a1-2)Man(a1-3)Man = molecular target: Man(a1-2)Man(a1-3)Man
# Procedure, shortened: as §1
# [19] = molecular target: Man(a1-2)Man(a1-3)[Man(a1-2)Man(a1-6)]Man
# Procedure, shortened: as §1
# [20] = molecular target: Man(a1-2)Man(a1-3)[Man(a1-2)Man(a1-6)]Man(a1-6)[Man(a1-2)Man(a1-2)Man(a1-3)]Man
# Procedure, shortened: as §1
# [21] = molecular target: Man(a1-2)Man(a1-3)[Man(a1-2)Man(a1-6)]Man(a1-6)[Man(a1-2)Man(a1-2)Man(a1-3)]Man(b1-4)GlcNAc(b1-4)GlcNAc
# Procedure, shortened: as §1
# [22] = molecular target: Man(a1-2)Man(a1-3)[Man(a1-6)]Man(a1-6)[Man(a1-2)Man(a1-3)]Man(b1-4)GlcNAc(b1-4)GlcNAc
# Procedure, shortened: as §1
# [23] = molecular target: Man(a1-2)Man(a1-6)[Man(a1-3)]Man(a1-6)[Man(a1-2)Man(a1-2)Man(a1-3)]Man
# Procedure, shortened: as §1
# [24] = molecular target: Man(a1-2)Man(a1-6)[Man(a1-3)]Man(a1-6)[Man(a1-2)Man(a1-2)Man(a1-3)]Man(b1-4)GlcNAc(b1-4)GlcNAc
# Procedure, shortened: as §1
# Man(a1-3)[Man(a1-6)]Man = molecular target: Man(a1-3)[Man(a1-6)]Man
# Procedure, shortened: as §1
# [25] = molecular target: Man(a1-3)[Man(a1-6)]Man(a1-6)[Man(a1-2)Man(a1-3)]Man(b1-4)GlcNAc(b1-4)GlcNAc
# Procedure, shortened: as §1
binder,measurement,setting,value
B1,glycan array binding signal (z-score),GalNAc(b1-3)GalNAc,-0.44
same,glycan array binding signal (z-score),GalNAc(b1-4)GlcNAc,2.06
same,glycan array binding signal (z-score),Glc(a1-4)Glc,-0.422
same,glycan array binding signal (z-score),Glc(a1-6)Glc(a1-6)Glc,-0.44
same,glycan array binding signal (z-score),Glc(b1-4)Glc,-0.39
same,glycan array binding signal (z-score),Glc(b1-6)Glc,1.92
same,glycan array binding signal (z-score),GlcA(b1-3)Gal,-0.368
same,glycan array binding signal (z-score),GlcA(b1-3)GlcNAc,-0.029
same,glycan array binding signal (z-score),GlcA(b1-6)Gal,-0.4
same,glycan array binding signal (z-score),[1],-0.443
same,glycan array binding signal (z-score),[2],-0.3
same,glycan array binding signal (z-score),[3],-0.483
same,glycan array binding signal (z-score),[4],0.842
same,glycan array binding signal (z-score),GlcNAc(b1-3)Gal,-0.37
same,glycan array binding signal (z-score),[5],-0.055
same,glycan array binding signal (z-score),GlcNAc(b1-3)Gal(b1-4)Glc,-0.381
same,glycan array binding signal (z-score),[6],-0.452
same,glycan array binding signal (z-score),[7],-0.46
same,glycan array binding signal (z-score),GlcNAc(b1-3)GalNAc,-0.36
same,glycan array binding signal (z-score),GlcNAc(b1-3)Man,-0.183
same,glycan array binding signal (z-score),[8],-0.431
same,glycan array binding signal (z-score),[9],-0.403
same,glycan array binding signal (z-score),[10],-0.397
same,glycan array binding signal (z-score),[11],-0.344
same,glycan array binding signal (z-score),GlcNAc(b1-4)GlcNAc,-0.002
same,glycan array binding signal (z-score),[12],-0.487
same,glycan array binding signal (z-score),[13],-0.468
same,glycan array binding signal (z-score),[14],-0.398
same,glycan array binding signal (z-score),[15],-0.434
same,glycan array binding signal (z-score),[16],-0.5
same,glycan array binding signal (z-score),GlcNAc(b1-6)GalNAc,-0.36
same,glycan array binding signal (z-score),GlcNAc3Prop(b1-4)GlcNAc,-0.448
same,glycan array binding signal (z-score),Kdn(a2-3)Gal(b1-3)GlcNAc,-0.416
same,glycan array binding signal (z-score),Kdn(a2-3)Gal(b1-4)GlcNAc,-0.433
same,glycan array binding signal (z-score),[17],-0.466
same,glycan array binding signal (z-score),[18],-0.508
same,glycan array binding signal (z-score),Man(a1-2)Man(a1-3)Man,-0.309
same,glycan array binding signal (z-score),[19],-0.43
same,glycan array binding signal (z-score),[20],-0.279
same,glycan array binding signal (z-score),[21],2.59
same,glycan array binding signal (z-score),[22],-0.39
same,glycan array binding signal (z-score),[23],-0.427
same,glycan array binding signal (z-score),[24],2.2
same,glycan array binding signal (z-score),Man(a1-3)[Man(a1-6)]Man,-0.311
same,glycan array binding signal (z-score),[25],-0.274
